Test results published in the RNAGym collection of RNA variant scans (doi:10.7554/elife.90254).
The source gives no read counts; variants with many changes may rest on few reads.

B1: LINE1-mini (parent)
chain: GGCAGAGCUCAACACAGCGUGGCAAAGUGGCUGUGGCUAGACUGCC

Variants of: B1
Assay: self-cleavage, relative activity (ratio to wild type); higher = more cleavage; in vitro, sequencing; the parent is a self-cleaving ribozyme

Variant	self-cleavage
GGCAGAGCUCAACACAUCGUGGCAAAGUGACAGUGGCUAGACUGCC [G17U G30A U32A]	0.14
GGCAGAGCUCAACACAGAGUGGUAAAGUGGCUGUGGCUAGAUUGAC [C18A C23U C42U C45A]	0.01
GGCAGAGCUCAACACAUCCUCGCAAAGUGGCACUGGCAAGACUGCC [G17U G19C G21C U32A G33C U38A]	0.02
GGCAGAGCUCAACACAGAGUGGCAAUGUGACUGUGGCUAGACUGCC [C18A A26U G30A]	0.99
GGCAGAGCUCAACACAGAAUGGCAAAGUGGCUGUGGCUAGACUGCA [C18A G19A C46A]	0.89
GGCAGAGCUCAACACAUCAUGGCAAAGUGUCUGUGGUUAGACUGCC [G17U G19A G30U C37U]	0.14
GGCAGAGCUCAACACAUCAUGGCAAUGUGGCUGUCGCUAGACUGCC [G17U G19A A26U G35C]	0.09
GGCAGAGCUCAACACAGAGUGGCGAAGUGCCUGUGGCUAGACUGCC [C18A A24G G30C]	0.36
GGCAGAGCUCAACACAUCGUGGCAAAGUGGCUGGGGCUUGGCUGCC [G17U U34G A39U A41G]	0.01
GGCAGAGCUCAACACAUCGGGGCCAAGUGGCUGUGGCUAGACGGCC [G17U U20G A24C U43G]	0.04
GGCAGAGCUCAACACAUCGAGGUAAGGUGGCUGUGGCUAGAGUGCC [G17U U20A C23U A26G C42G]	0.02
GGCAGAGCUCAACACAUCGUGGCAAAGUGGUUAUGGCGAGACUGCC [G17U C31U G33A U38G]	0.05
GGCAGAGCUCAACACAUCCUGGCAAAGGGGCUGUGGCUAGACAGGC [G17U G19C U28G U43A C45G]	0.02
GGCAGAGCUCAACACAGAGUGGCAAAGUGGCUGUGGAUAGAAUGCC [C18A C37A C42A]	0.04
GGCAGAGCUCAACACAUCGUUGCAAAGUGGCUGUGGCUAGACAGCC [G17U G21U U43A]	0.09
GGCAGAGCUCAACACAUCGUGGCAAAUUGGAUGUGGCUAGACUGCC [G17U G27U C31A]	0.88
GGCAGAGCUCAACACAUCAUGGCAAUGUGGCAGUGGCUAGACUGCC [G17U G19A A26U U32A]	0.07
GGCAGAGCUCAACACAUCGAGGUAAAGUGGCUGUGGCUACACUGCC [G17U U20A C23U G40C]	0.02
GGCAGAGCUCAACACAGAGUUGCAAAGUGGCUGUGGCGAGACUGCU [C18A G21U U38G C46U]	0.04

Variant	self-cleavage
GGCAGAGCUCAACACAGAGUGGCAACGUGGCUGUGGCUGGACUGCC [C18A A26C A39G]	0.03
GGCAGAGCUCAACACAGAGUGGCAAGGUGGCUGUGGCUAUACUGCC [C18A A26G G40U]	0.06
GGCAGAGCUCAACACAUCGUGGCAAAGUGCCUGUGGCUAUACUGCC [G17U G30C G40U]	0.18
GGCAGAGCUCAACACAUCGUGGGAAAGUGGCUGUGGGUAGAGUGCC [G17U C23G C37G C42G]	0.02
GGCAGAGCUCAACACAGAGUAGCAAAGUGGCUGUGACUAGACUGCC [C18A G21A G36A]	0.25
GGCAGAGCUCAACACAGAGUGGCAAGGGGGCUGUGGCUAGACUGCC [C18A A26G U28G]	0.46
GGCAGAGCUCAACACAGAGUUGCAACGUGGCUGUGGCUAGACUGCC [C18A G21U A26C]	0.29
GGCAGAGCUCAACACAUCGUAUCAAAGUGGCUGUGGCUAGACUGCC [G17U G21A G22U]	0.84
GGCAGAGCUCAACACAUCGUGGCAAAGUGGCUGUGGUUGGACUGCC [G17U C37U A39G]	0.07
GGCAGAGCUCAACACAGAGUGGCAGAGUGGCCGUGGCUAGACUGCC [C18A A25G U32C]	0.07
GGCAGAGCUCAACACAUCAUGGCAAACUGGCUGUUGCCAGACUGCC [G17U G19A G27C G35U U38C]	0.07
GGCAGAGCUCAACACAUCGCGGCACAGUGGCAGUGGCUAGACUGCC [G17U U20C A25C U32A]	0.04
GGCAGAGCUCAACACAUCGAGGCAAAGUGGCUGUGGCUAGAAUGCC [G17U U20A C42A]	0.26
GGCAGAGCUCAACACAUCAUGGCAAAGUGGCUGUGGCUAGACUGCG [G17U G19A C46G]	0.1
GGCAGAGCUCAACACAGACUGGCAAAGGGGCUGUGGCGAGACGGCC [C18A G19C U28G U38G U43G]	0.01
GGCAGAGCUCAACACAUCCCGACAAAGUGGCUGUGGCUAGACUGCC [G17U G19C U20C G22A]	0.46
GGCAGAGCUCAACACAUCGUGGCAAAGUGGCUGUUGCUAGAUUGCC [G17U G35U C42U]	0.05
GGCAGAGCUCAACACAUUCUGGCAAAGUGGCUGUGGCUAGAGUGCC [G17U C18U G19C C42G]	0.05
GGCAGAGCUCAACACAUCGUGGGAAAGAGGCUGUGGCUAGACUGCC [G17U C23G U28A]	0.11

Variant	self-cleavage
GGCAGAGCUCAACACAUCGUGGCAAAGUGGCUGUGGCUAGAGCGCC [G17U C42G U43C]	0.03
GGCAGAGCUCAACACAUCGUGGCAAAGUGGCUGUCGCUAGACUGGC [G17U G35C C45G]	0.04
GGCAGAGCUCAACACAUCGUGGCAAAGUGGCUGUGGUUAGACUGCA [G17U C37U C46A]	0.2
GGCAGAGCUCAACACAGAGUUGGAAUGUGGCAGUGGUUAGACUGCC [C18A G21U C23G A26U U32A C37U]	0.09
GGCAGAGCUCAACACAUCGUGGCAAAGUGGCUGUGCCUACACUGAC [G17U G36C G40C C45A]	0
GGCAGAGCUCAACACAUCGAGGCAAAGUGGCGGUGGCUAGGCUGCC [G17U U20A U32G A41G]	0.06
GGCAGAGCUCAACACAGAGUGGUCAAGUGGCUGGGGCGAGACUGCC [C18A C23U A24C U34G U38G]	0.04
GGCAGAGCUCAACACAUCGUGCCAAAGUGGCUAUGGCUAGACUGCC [G17U G22C G33A]	0.05
GGCAGAGCUCAACACAGACUGGCAAAGUGGCUGUGGAUAGACUGCC [C18A G19C C37A]	0.05
GGCAGAGCUCAACACAUCGUGGCAAAGUAGCUGUAGCUAGACUUCU [G17U G29A G35A G44U C46U]	0.01
GGCAGAGCUCAACACAUCGUGGUAAAGUGGCUGUGUCUAGACUGCC [G17U C23U G36U]	0.08
GGCAGAGCUCAACACAGAGUGCAAAAGUGGCUGUGGCUAGACUGCC [C18A G22C C23A]	1.22
GGCAGAGCUCAACACAUCGUGGUAAAGUGGCUGUGGGUAGACUGCC [G17U C23U C37G]	0.06
GGCAGAGCUCAACACAUCGUGGCAAAGUAGCGGUGUCUAGACCGCC [G17U G29A U32G G36U U43C]	0.09
GGCAGAGCUCAACACAUCGUGCCAAAGUGGCUGUGGCUAGAUUGCC [G17U G22C C42U]	0.23
GGCAGAGCUCAACACAUCGUGGUAAAGUGGCUGUGGCUUGACUGCC [G17U C23U A39U]	0
GGCAGAGCUCAACACAGAGUGGCAUAGUGGCUGUAGCUAGACUGCC [C18A A25U G35A]	0.07
GGCAGAGCUCAACACAGAGUGGUAAAGUGGAUGUGGCUAGACUCCC [C18A C23U C31A G44C]	0.05
